Test results as given in article PMC9911399, “Two distinct binding modes provide the RNA-binding protein RbFox with extraordinary sequence specificity”.
Where a chain is given by its changes, count along the chain named. Some of the results follow.

T1: RBFOX1 RRM (Homo sapiens, UniProt Q9NWB1 109-208)
T1 sequence: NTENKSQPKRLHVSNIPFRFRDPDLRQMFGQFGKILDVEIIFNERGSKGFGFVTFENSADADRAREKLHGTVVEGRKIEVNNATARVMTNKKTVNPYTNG

B1: AUAUGGU (DNA:RNA)
RNA: GGGAGACCGGAAUUCAGAUUGUCCAUAUGGUUUAAAUCCCGUCGUAGCCACCA
DNA 1: CAATCTGAATTCCGGTCTCCC
DNA 2: TGGTGGCTACGACGGGATT
B2: UAUGUAC (DNA:RNA)
RNA: GGGAGACCGGAAUUCAGAUUGUCCUAUGUACUUAAAUCCCGUCGUAGCCACCA
DNA 1: CAATCTGAATTCCGGTCTCCC
DNA 2: TGGTGGCTACGACGGGATT
B3: AGUCUGG (DNA:RNA)
RNA: B1 RNA with U26G, A27U, U28C, G29U, U31G
DNA 1: CAATCTGAATTCCGGTCTCCC
DNA 2: TGGTGGCTACGACGGGATT
B4: CGGUAUC (DNA:RNA)
RNA: B1 RNA with A25C, U26G, A27G, G29A, G30U, U31C
DNA 1: CAATCTGAATTCCGGTCTCCC
DNA 2: TGGTGGCTACGACGGGATT
B5: GAAGGGU (DNA:RNA)
RNA: B1 RNA with A25G, U26A, U28G
DNA 1: CAATCTGAATTCCGGTCTCCC
DNA 2: TGGTGGCTACGACGGGATT
B6: CCGCUUA (DNA:RNA)
RNA: B2 RNA with U25C, A26C, U27G, G28C, A30U, C31A
DNA 1: CAATCTGAATTCCGGTCTCCC
DNA 2: TGGTGGCTACGACGGGATT
B7: UGACCUA (DNA:RNA)
RNA: B1 RNA with A25U, U26G, U28C, G29C, G30U, U31A
DNA 1: CAATCTGAATTCCGGTCTCCC
DNA 2: TGGTGGCTACGACGGGATT
B8: GCUCUAG (DNA:RNA)
RNA: B2 RNA with U25G, A26C, G28C, C31G
DNA 1: CAATCTGAATTCCGGTCTCCC
DNA 2: TGGTGGCTACGACGGGATT
B9: AACAGCU (DNA:RNA)
RNA: B1 RNA with U26A, A27C, U28A, G30C
DNA 1: CAATCTGAATTCCGGTCTCCC
DNA 2: TGGTGGCTACGACGGGATT
B10: UCUGAUC (DNA:RNA)
RNA: B2 RNA with A26C, U29A, A30U
DNA 1: CAATCTGAATTCCGGTCTCCC
DNA 2: TGGTGGCTACGACGGGATT
B11: AUGGAUU (DNA:RNA)
RNA: B1 RNA with A27G, U28G, G29A, G30U
DNA 1: CAATCTGAATTCCGGTCTCCC
DNA 2: TGGTGGCTACGACGGGATT
B12: AAGACUG (DNA:RNA)
RNA: B1 RNA with U26A, A27G, U28A, G29C, G30U, U31G
DNA 1: CAATCTGAATTCCGGTCTCCC
DNA 2: TGGTGGCTACGACGGGATT
B13: GGGUGAC (DNA:RNA)
RNA: B1 RNA with A25G, U26G, A27G, G30A, U31C
DNA 1: CAATCTGAATTCCGGTCTCCC
DNA 2: TGGTGGCTACGACGGGATT
B14: UGCCGAA (DNA:RNA)
RNA: B2 RNA with A26G, U27C, G28C, U29G, C31A
DNA 1: CAATCTGAATTCCGGTCTCCC
DNA 2: TGGTGGCTACGACGGGATT
B15: UAUUAAG (DNA:RNA)
RNA: B2 RNA with G28U, U29A, C31G
DNA 1: CAATCTGAATTCCGGTCTCCC
DNA 2: TGGTGGCTACGACGGGATT
B16: AGCCAUA (DNA:RNA)
RNA: B1 RNA with U26G, A27C, U28C, G29A, G30U, U31A
DNA 1: CAATCTGAATTCCGGTCTCCC
DNA 2: TGGTGGCTACGACGGGATT
B17: AUCAUAA (DNA:RNA)
RNA: B1 RNA with A27C, U28A, G29U, G30A, U31A
DNA 1: CAATCTGAATTCCGGTCTCCC
DNA 2: TGGTGGCTACGACGGGATT
B18: AUCUCUC (DNA:RNA)
RNA: B1 RNA with A27C, G29C, G30U, U31C
DNA 1: CAATCTGAATTCCGGTCTCCC
DNA 2: TGGTGGCTACGACGGGATT
B19: GGUGUUU (DNA:RNA)
RNA: B2 RNA with U25G, A26G, A30U, C31U
DNA 1: CAATCTGAATTCCGGTCTCCC
DNA 2: TGGTGGCTACGACGGGATT
B20: AGGCCUU (DNA:RNA)
RNA: B1 RNA with U26G, A27G, U28C, G29C, G30U
DNA 1: CAATCTGAATTCCGGTCTCCC
DNA 2: TGGTGGCTACGACGGGATT
B21: CGAUUCU (DNA:RNA)
RNA: B1 RNA with A25C, U26G, G29U, G30C
DNA 1: CAATCTGAATTCCGGTCTCCC
DNA 2: TGGTGGCTACGACGGGATT
B22: AAAGACG (DNA:RNA)
RNA: B1 RNA with U26A, U28G, G29A, G30C, U31G
DNA 1: CAATCTGAATTCCGGTCTCCC
DNA 2: TGGTGGCTACGACGGGATT
B23: CCUACGU (DNA:RNA)
RNA: B1 RNA with A25C, U26C, A27U, U28A, G29C
DNA 1: CAATCTGAATTCCGGTCTCCC
DNA 2: TGGTGGCTACGACGGGATT
B24: CCGCAGG (DNA:RNA)
RNA: B1 RNA with A25C, U26C, A27G, U28C, G29A, U31G
DNA 1: CAATCTGAATTCCGGTCTCCC
DNA 2: TGGTGGCTACGACGGGATT
B25: AUGCGGC (DNA:RNA)
RNA: B1 RNA with A27G, U28C, U31C
DNA 1: CAATCTGAATTCCGGTCTCCC
DNA 2: TGGTGGCTACGACGGGATT
B26: CUUGUUC (DNA:RNA)
RNA: B2 RNA with U25C, A26U, A30U
DNA 1: CAATCTGAATTCCGGTCTCCC
DNA 2: TGGTGGCTACGACGGGATT
B27: GCUGACC (DNA:RNA)
RNA: B2 RNA with U25G, A26C, U29A, A30C
DNA 1: CAATCTGAATTCCGGTCTCCC
DNA 2: TGGTGGCTACGACGGGATT
B28: CCGUCUC (DNA:RNA)
RNA: B1 RNA with A25C, U26C, A27G, G29C, G30U, U31C
DNA 1: CAATCTGAATTCCGGTCTCCC
DNA 2: TGGTGGCTACGACGGGATT
B29: UUCGGAG (DNA:RNA)
RNA: B2 RNA with A26U, U27C, U29G, C31G
DNA 1: CAATCTGAATTCCGGTCTCCC
DNA 2: TGGTGGCTACGACGGGATT
B30: AUUCCCG (DNA:RNA)
RNA: B1 RNA with A27U, U28C, G29C, G30C, U31G
DNA 1: CAATCTGAATTCCGGTCTCCC
DNA 2: TGGTGGCTACGACGGGATT
B31: UCUUCCG (DNA:RNA)
RNA: B2 RNA with A26C, G28U, U29C, A30C, C31G
DNA 1: CAATCTGAATTCCGGTCTCCC
DNA 2: TGGTGGCTACGACGGGATT

The binders below were run against T1, RBFOX1 RRM (assay: EMSA; HiTS-Eq, 1 nM pool, 10 min; buffer printed only for the single-RNA assays: 10 mM Tris pH 7.5, 150 mM NaCl, 3.4 mM EDTA, 0.001% NP-40, 30 C). Details: tags: His6 N-terminal (pET28a); label: 5' 32P.
Method in brief: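 Purified RbFox RRM (wild type or mutant) was equilibrated for 10 min in 50 µL with 1 nM of a 5′-radiolabelled pool of RNA with 7 randomized nucleotides, its flanks annealed to DNA oligonucleotides, across increasing protein concentrations. Free RNA was separated by 8% native PAGE, excised, reverse-transcribed, PCR-barcoded and sequenced on an Illumina HiSeq 2500. Relative association constants came from read-count changes of each variant against the control reaction, normalised to the cognate motif.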

Binder	binding signal
B1	0.00889 KA relative to UGCAUGU
B2	0.00949 KA relative to UGCAUGU
B3	0.0172 KA relative to UGCAUGU
B4	0.00533 KA relative to UGCAUGU
B5	0.0119 KA relative to UGCAUGU
B6	0.00338 KA relative to UGCAUGU
B7	0.00667 KA relative to UGCAUGU
B8	0.012 KA relative to UGCAUGU
B9	0.00273 KA relative to UGCAUGU
B10	0.0179 KA relative to UGCAUGU
B11	0.0175 KA relative to UGCAUGU
B12	0.0112 KA relative to UGCAUGU
B13	0.0143 KA relative to UGCAUGU
B14	0.018 KA relative to UGCAUGU
B15	0.0136 KA relative to UGCAUGU
B16	0.00205 KA relative to UGCAUGU

Binder	binding signal
B17	0.0013 KA relative to UGCAUGU
B18	0.00233 KA relative to UGCAUGU
B19	0.0241 KA relative to UGCAUGU
B20	0.011 KA relative to UGCAUGU
B21	0.00957 KA relative to UGCAUGU
B22	0.00391 KA relative to UGCAUGU
B23	0.00236 KA relative to UGCAUGU
B24	0.0108 KA relative to UGCAUGU
B25	0.0126 KA relative to UGCAUGU
B26	0.0158 KA relative to UGCAUGU
B27	0.0183 KA relative to UGCAUGU
B28	0.0151 KA relative to UGCAUGU
B29	0.00668 KA relative to UGCAUGU
B30	0.000266 KA relative to UGCAUGU
B31	0.00707 KA relative to UGCAUGU
